Whole data set: some 33,000 sequences, median “E-score (-0.5 to 0.5)” near -0.016, cut for the highest 2% near 0.32. This is one part of the list.
target: T1, Stp1 (UniProt B3LFK1); assay: PBM E-score (8-mer binding enrichment) (E-score (-0.5 to 0.5)); higher = stronger / more preferred TF binding; most listed sequences are background and not binding sites; conditions: protein concentration: 200 nM; construct: GST-full length
T1 sequence: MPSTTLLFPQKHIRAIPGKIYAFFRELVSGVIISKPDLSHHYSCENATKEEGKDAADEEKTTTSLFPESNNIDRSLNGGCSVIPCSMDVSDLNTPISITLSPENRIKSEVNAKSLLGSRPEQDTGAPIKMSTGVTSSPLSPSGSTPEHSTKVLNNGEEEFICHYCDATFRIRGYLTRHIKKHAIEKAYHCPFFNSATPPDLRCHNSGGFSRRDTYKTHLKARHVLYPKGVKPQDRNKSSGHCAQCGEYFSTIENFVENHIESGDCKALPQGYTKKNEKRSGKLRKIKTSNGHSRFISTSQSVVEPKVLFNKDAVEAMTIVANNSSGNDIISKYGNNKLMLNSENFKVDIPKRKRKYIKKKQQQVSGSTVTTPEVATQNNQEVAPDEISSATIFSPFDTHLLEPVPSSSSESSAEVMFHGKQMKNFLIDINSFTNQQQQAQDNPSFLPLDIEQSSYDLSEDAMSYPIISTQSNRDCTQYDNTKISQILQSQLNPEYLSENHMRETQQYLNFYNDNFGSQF
Summary of the method: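 The E-score, a modified Wilcoxon-Mann-Whitney statistic, was computed by the Universal PBM Analysis Suite for every ungapped eight-base word pooled with its reverse complement. Scans behind it were normalised with masliner after bound GST-tagged yeast transcription factors were detected with fluorescent anti-GST. The proteins, at about 100-200 nM, had been applied to universal all-10-mer Agilent arrays made double-stranded by primer extension.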

| Sequence | PBM E-score |
| --- | --- |
| ACAATTCT | 0.0384 |
| ATGTGAAA | 0.138 |
| ACCACCAA | -0.13 |
| GAGTATCA | -0.127 |
| TCGCATCA | 0.111 |
| CAGTAGTA | -0.0834 |
| ATGATCAG | -0.0901 |
| GGAAGCCC | -0.267 |
| CTCTAGCC | -0.139 |
| ATCCAGGC | -0.0908 |
| CGCGTTGA | 0.179 |
| CCGAAGAC | -0.119 |
| ACCGGAGA | -0.116 |
| GCCCTCAA | -0.271 |
| CTGTCGTA | -0.0535 |
| CGATATAC | 0.105 |
| GGTCCCTA | -0.0655 |
| AACCCGAG | -0.0736 |
| CTCGCCGC | 0.353 |
| CGTAGAGA | -0.0187 |
| CTTCTCAA | 0.0107 |
| ACGTGCTA | -0.0123 |
| CACTGCGA | -0.0083 |
| ATCCACGC | -0.07 |
| GTAATGAC | -0.182 |

| Sequence | PBM E-score |
| --- | --- |
| CTCTATTC | -0.0597 |
| GTTTTACA | 0.0556 |
| GTCTAAGA | 0.0284 |
| GTAGGTTA | -0.113 |
| GCATCGGC | 0.084 |
| GGCGGAGA | 0.0979 |
| CAATTCGC | 0.18 |
| GCGTACCC | -0.144 |
| AGGAGACA | -0.143 |
| CTGGGTTC | -0.0642 |
| GTAAGAGA | -0.0111 |
| ACCTTTAT | -0.202 |
| CGGTCAAG | -0.0974 |
| AAGTAGCG | -0.0826 |
| ACGCATCA | -0.0474 |
| CAGTTGAA | -0.0323 |
| ACTGTAAC | -0.026 |
| AGATAGAG | -0.0214 |
| CAAGTTCC | -0.109 |
| GGCCCCGA | -0.159 |
| GAACCAGA | -0.184 |
| ACGTGGTG | -0.13 |
| AGAATTCG | -0.0131 |
| TGTTTGAA | 0.132 |
| GGGGGTCA | -0.369 |

| Sequence | PBM E-score |
| --- | --- |
| CGGGTGCC | 0.161 |
| CTTGACCA | -0.0647 |
| CGCGTTGC | 0.173 |
| AGTTTTAC | 0.0396 |
| ATGGCACC | 0.118 |
| GTTCCGTA | 0.0809 |
| ACTAGAAG | 0.00154 |
| AGGATGCG | -0.0194 |
| AGGAAGTA | -0.0959 |
| CTCCCCGC | 0.101 |
| AAAAAGAT | 0.052 |
| CCTAACGA | -0.0115 |
| AACATGCG | 0.113 |
| CGGCTAAA | 0.252 |
| GACGCGTC | -0.119 |
| AAAAGGGA | -0.114 |
| AAACACTA | 0.092 |
| GTATACCA | 0.0622 |
| ACAAAGTA | 0.0943 |
| AGTACATC | -0.105 |
| AACACACC | 0.062 |
| ATATTGCC | 0.221 |
| CGACAGTA | -0.0982 |
| AGGCGCCC | 0.232 |
| ACCTCTAG | -0.162 |

| Sequence | PBM E-score |
| --- | --- |
| AAAGTAAC | 0.11 |
| GGCGCAAC | 0.268 |
| AGTGAATA | 0.101 |
| AGTAATAC | -0.0623 |
| CGGCTGGA | 0.145 |
| ACGCCCAA | -0.0651 |
| CAAGCTCC | -0.275 |
| AACTGTGC | -0.00183 |
| CCCACGGG | -0.166 |
| AAGTGAGT | -0.17 |
| CGGTAAGA | 0.0116 |
| ACCAGTGC | -0.172 |
| GTGCACTA | 0.0907 |
| CACTAGTC | -0.25 |
| GCTGTCAA | 0.0202 |
| AAGGAAGG | -0.0458 |
| TCAGAACA | -0.0275 |
| ATCACCGA | 0.0107 |
| ATAGACCA | -0.156 |
| TCCCCAGA | -0.381 |
| GCGAGTAA | 0.174 |
| TAAGTATA | 0.174 |
| GGCACCAC | 0.324 |
| AATTCCCT | -0.0839 |
| CATTGCGC | 0.0607 |

| Sequence | PBM E-score |
| --- | --- |
| ATCGAGCG | 0.183 |
| ACCCTGGA | -0.419 |
| AGGGCAGA | -0.239 |
| TCTACCAA | -0.0725 |
| CGAACCAG | 0.0261 |
| GGTTGTTA | 0.0915 |
| AATGCAAT | -0.0534 |
| CCCTGTCA | -0.12 |
| GGGAACGA | -0.117 |
| AGTCTTCG | -0.0547 |
| CCAGTCGA | -0.0258 |
| AATCGGAT | 0.111 |
| ACGGTTGA | -0.11 |
| AGTACCCG | -0.00067 |
| CAAAGGTC | -0.257 |
| AAAATTCA | 0.238 |
| GATCTACA | 0.0609 |
| ACAGACCT | -0.0316 |
| GGGTTGGA | -0.0925 |
| CATCAAAC | 0.15 |
| CAGTGGGA | -0.227 |
| GACTGGAA | -0.0872 |
| AACTCTCA | -0.0474 |
| CTCCTGGC | -0.049 |
| AGTAAGAT | 0.136 |

| Sequence | PBM E-score |
| --- | --- |
| AAATAGTG | 0.0769 |
| CCCACAAA | 0.158 |
| CGGAGAAG | -0.147 |
| CTTACGGA | -0.295 |
| CCTGATAC | 0.128 |
| GAGCGGCC | 0.156 |
| ACAAGCGA | -0.189 |
| AAAATAGT | -0.00722 |
| AGCCCAAG | -0.0659 |
| ATCTCGTC | -0.0103 |
| CCACTGCG | 0.0474 |
| CAGTGTTC | 0.0466 |
| AAATCTGT | 0.0379 |
| ATGTTCGC | -0.142 |
| AAAGCGGT | -0.0888 |
| AGGTCCAC | -0.179 |
| ACTTAACG | 0.00243 |
| CACGCTGC | -0.121 |
| GATCTCTA | -0.0861 |
| CCTTCGAC | -0.184 |
| CAAGAGGC | 0.231 |
| ACACCTAG | -0.139 |
| CGGCACGA | 0.459 |
| CTGCTCTA | -0.037 |
| ATAGATGG | -0.0898 |

| Sequence | PBM E-score |
| --- | --- |
| GCGTGCTA | -0.176 |
| CATGTTCC | -0.0941 |
| CACCTATG | -0.108 |
| ACCTGTCA | -0.0576 |
| AAATCTAC | 0.0829 |
| GCTGCCTA | -0.0568 |
| ACGGGTGC | 0.105 |
| GCTTGTGA | -0.068 |
| CCAGTCTA | -0.186 |
| CGGTAGTA | -0.00143 |
| CAATTATA | -0.0185 |
| CGCCTTTA | 0.129 |
| AACAGTCT | -0.242 |
| AATTTTCT | 0.0398 |
| GATCTAAC | -0.104 |
| CGTCAGCA | -0.0954 |
| AGTACTCC | -0.234 |
| ACACGGGC | 0.0838 |
| AATATATG | 0.158 |
| CGCCGAGA | -0.0302 |
| AAAGGGCG | 0.248 |
| TACGCCAA | -0.104 |
| CCCGCCAC | -0.0792 |
| CTTCGTCA | 0.107 |
| CGATACAC | 0.00016 |

| Sequence | PBM E-score |
| --- | --- |
| ACACTGAC | -0.168 |
| AACAAAGT | 0.177 |
| CCCGATTC | 0.0613 |
| ATAAATCC | 0.0719 |
| ATTTGAAC | 0.107 |
| CCCCGGTC | -0.309 |
| CGCTCTGA | -0.095 |
| ACGAAGAC | -0.104 |
| GATCCATC | -0.109 |
| CATTGGGA | -0.258 |
| AATCAATA | 0.293 |
| ACCGTTCG | 0.0794 |
| CGTGGCTA | 0.0439 |
| CATCAGCA | -0.0551 |
| ATCATTAA | 0.145 |
| ACAGCGAA | 0.0628 |
| TGAGAGCA | -0.112 |
| TGCCCCCA | -0.202 |
| CCAGTTGC | 0.00923 |
| AACGAACC | 0.117 |
| TACAGTCA | 0.0313 |
| CCCCTCCG | -0.288 |
| AAGTGTTG | 0.0173 |
| AACCAATA | 0.0694 |
| GTACGAAC | 0.282 |

| Sequence | PBM E-score |
| --- | --- |
| GCAGAACA | -0.00078 |
| AGGTCTCG | -0.226 |
| GTTTCGAA | 0.238 |
| AGCCCCCA | -0.365 |
| TCCTTGCA | -0.0871 |
| ACGAATAA | 0.102 |
| GCCGGGCC | -0.0641 |
| GGGCCTTA | -0.0714 |
| GACCAGAA | 0.0144 |
| ACCAACCG | -0.167 |
| GCGAGGCC | 0.0547 |
| AGGGACAA | -0.0293 |
| ACCCCCTA | -0.39 |
| GTAAAGGA | 0.00792 |
| CACTTGAG | -0.0776 |
| TCCGTGAA | 0.0172 |
| CTACTGGA | -0.137 |
| AGCGAACA | 0.0778 |
| ACGATCGC | 0.189 |
